Data from patent US20090286279A1 (Scripps Research, published 2009).

B1: sulfo-hirudin ([Leu^1, Thr^2]-hirudin with sulfotyrosine at position 63, expressed in E. coli from pBAD-HirudinTAG) (other)
chain: LTYTDCTESGQNLCLCEGSNVCGQGNKCILGSDGEKNQCVTGEGTPKPQSHNDGDFEEIPEEYLQ
modifications: sulfotyrosine at position 63
notes: mature; Tyr63 is replaced by the unnatural amino acid sulfotyrosine; also called sulfated hirudin; genetically encoded sulfo-hirudin
B2: [Leu^1, Thr^2]-63-desulfo-hirudin (Lepirudin (Refludan)) (other)
chain: B1 chain
notes: mature; Expressed in E. coli from pBAD-Hirudin

How the values were obtained:
[1] = molecular target: human α-thrombin (Diapharma) (human); assay: thrombin inhibition kinetics
Experimental: (§1) To characterize the efficacy of the expressed sulfo-hirudin as an anticoagulant, the kinetics of thrombin inhibition were determined using a fluorogenic enzyme assay based on the single progress curve method previously reported in the literature (Cha, “Tight-binding inhibitors—III. A new approach for the determination of competition between tight-binding inhibitors and substrates—inhibition of adenosine deaminase by coformycin,” Biochem Pharmacol 25:2695-2702 (1976); Komatsu et al., “CX-397, a novel recombinant hirudin analog having a hybrid sequence of hirudin variants-1 and -3,” Biochem Biophys Res Commun 196:773-779 (1993)). In this assay, 100 pM of either sulfo-hirudin or desulfo-hirudin was mixed with 50 μM fluorogenic substrate to which human α-thrombin was added to initiate the reaction.
The exact concentrations of hirudin and sulfo-hirudin were determined by titration against thrombin in a concentration range where 1:1 binding could be assumed. […] These thrombin inhibition kinetic constants derived from non-linear fitting of progress curves averaged over at least 3 readings with standard deviations reported are shown in the table below.

[2] = molecular target: human α-thrombin (Diapharma) (human); assay: thrombin inhibition, fluorogenic enzyme assay, single progress curve method; koff is the product of kon and Ki
Experimental: (§2) FIGS. 3A and 3B provide representative plots of thrombin inhibition with their respective fitted progress curves superimposed on the raw data points. Enzyme assays were conducted with 50 μM fluorogenic substrate, 40 pM human α-thrombin, and 100 pM expressed hirudin in a Tris-HCl saline buffer supplemented with polyethylene glycol 6000 and HSA.
as §1
(§3) The exact concentrations of hirudin and sulfo-hirudin were determined by titration against thrombin in a concentration range where 1:1 binding could be assumed. […]

[3] = molecular target: human α-thrombin (Diapharma) (human); assay: thrombin inhibition, fluorogenic enzyme assay, single progress curve method (40 pM α-thrombin, 100 pM hirudin)
Experimental: as §2, §1, §3

Row | Binder | fold higher affinity than desulfo-hirudin [1] | koff [2] | Ki [3] | kon [3]
1 | B1 | > 10 fold | 2.2e-06 s⁻¹ | – | –
2 | B2 | – | 1.18e-05 s⁻¹ | 0.307 pM | 3.8e+07 M⁻¹ s⁻¹
